Reference: PMC4336329 (PLoS ONE, 2015)
Among all 310,000 compounds or so, about 14,000 (4.5%) showed an effect of 50% or more. The effect is printed as a negative number. The list shows a part of the results.

Each molecule was assayed against human ether-à-go-go-related gene (hERG) potassium channel (human, UniProt Q12809) (assay: primary screen, population patch clamp on CHO cells stably expressing hERG).
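Further: peak tail current of the secondary pulse compared with the same well before compound.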

Chain of human ether-à-go-go-related gene (hERG) potassium channel (Q12809 whole entry, looked up): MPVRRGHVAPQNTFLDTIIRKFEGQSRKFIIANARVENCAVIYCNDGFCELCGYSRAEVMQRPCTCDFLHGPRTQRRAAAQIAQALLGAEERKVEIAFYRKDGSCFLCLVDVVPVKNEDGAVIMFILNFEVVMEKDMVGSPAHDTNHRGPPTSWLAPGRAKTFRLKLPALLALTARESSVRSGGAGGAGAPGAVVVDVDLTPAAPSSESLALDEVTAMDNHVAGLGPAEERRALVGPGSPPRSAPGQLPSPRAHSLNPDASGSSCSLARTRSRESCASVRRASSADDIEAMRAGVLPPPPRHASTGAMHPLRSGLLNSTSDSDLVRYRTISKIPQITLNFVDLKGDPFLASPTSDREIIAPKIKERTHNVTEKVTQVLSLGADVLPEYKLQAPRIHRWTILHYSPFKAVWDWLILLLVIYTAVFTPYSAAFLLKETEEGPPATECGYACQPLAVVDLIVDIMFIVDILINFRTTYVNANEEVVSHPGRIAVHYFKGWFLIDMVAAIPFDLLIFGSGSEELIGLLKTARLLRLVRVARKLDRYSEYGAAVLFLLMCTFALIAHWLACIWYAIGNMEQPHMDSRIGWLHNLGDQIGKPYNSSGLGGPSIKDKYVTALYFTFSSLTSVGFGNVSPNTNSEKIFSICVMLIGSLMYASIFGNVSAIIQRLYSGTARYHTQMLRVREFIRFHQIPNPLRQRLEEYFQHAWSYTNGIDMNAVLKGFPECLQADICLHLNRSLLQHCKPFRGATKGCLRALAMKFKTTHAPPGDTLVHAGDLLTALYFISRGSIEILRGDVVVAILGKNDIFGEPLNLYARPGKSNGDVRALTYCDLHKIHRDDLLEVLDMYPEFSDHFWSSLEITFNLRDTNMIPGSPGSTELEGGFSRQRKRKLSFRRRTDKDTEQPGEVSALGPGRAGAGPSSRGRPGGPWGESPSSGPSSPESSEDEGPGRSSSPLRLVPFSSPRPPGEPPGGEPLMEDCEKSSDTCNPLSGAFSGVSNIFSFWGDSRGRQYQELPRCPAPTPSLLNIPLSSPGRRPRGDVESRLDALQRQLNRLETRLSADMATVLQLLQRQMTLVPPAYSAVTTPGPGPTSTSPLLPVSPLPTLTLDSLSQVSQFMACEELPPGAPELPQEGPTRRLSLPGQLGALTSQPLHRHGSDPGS

Structure (SMILES) | hERG current change (%, negative = inhibition) at 10uM
Cc1cc(C(=O)OCC(=O)NCc2ccco2)c(C)n1-c1ccc(F)cc1 | -28.3%
O=S(=O)(Nc1ccc(Cl)c(C(F)(F)F)c1)c1cnc[nH]1 | 10.1%
Cl.Clc1ccccc1CNCc1ccncc1 | -0.497%
CCc1cccc(OCCCN2C(=O)NC(C)(C)C2=O)c1 | 17.9%
COc1ccc(CN(C(=O)c2cc3ccccc3oc2=O)C2CCCCC2)cc1OC | -32.9%
COc1ccccc1N1CCN(C(=O)C(C)NC(=O)c2cccc([N+](=O)[O-])c2)CC1 (stereo not drawn) | -29.1%
CCCOC(=O)C1=C(C)NC2=C(C(=O)C(C(=O)OC)C(C)C2)C1c1ccc(N(CC)CC)cc1 (stereo not drawn) | -5.21%
CC(C)CNC(=O)c1oc2ccccc2c1COc1ccccc1 | 7.05%
Cc1[nH]c2ccccc2c1N=Nc1ccc(F)cc1 | 7.73%
CSc1ncccc1C(=O)OCc1nc2ccsc2c(=O)[nH]1 | 1.57%
Cc1nnc(-c2cccc(C(F)(F)F)c2)nc1N1CCOCC1 | -74.1%
Cn1cccc1C(=O)N1CCN(S(=O)(=O)c2ccccc2)CC1 | 1.24%
COc1ccc(CCNC(=O)c2cc(S(=O)(=O)N3CCCCC3)c[nH]2)cc1OC | -11.9%
O=C(CSc1n[nH]c(-c2ccncc2)n1)NC1CCS(=O)(=O)C1 (stereo not drawn) | 4.14%
Cc1ccc(C(=O)CSc2nc(C)cc(=O)[nH]2)cc1 | 6.03%
CN(C)CCCOC(=O)CCc1ccccc1.Cl | 3.74%
Cc1nc2c(c(C)c1C#N)C(=O)c1ccccc1-2 | 1.58%
CC1=C(C(=O)N2CCOCC2)C(c2ccccc2F)C2=C(CCCC2=O)N1 (stereo not drawn) | 14.3%
CCN1CC(CN(C)Cc2cn(-c3ccc(C)cc3)nc2-c2ccc(F)cc2)CC1=O (stereo not drawn) | -35.1%

Structure (SMILES) | hERG current change (%, negative = inhibition) at 10uM
CCCCN(C(=O)/C=C/c1ccco1)c1c(N)n(CCC)c(=O)[nH]c1=O | 11.3%
Cc1cc(C)c(C)c(S(=O)(=O)NCc2ccco2)c1C | -14.5%
CCO/C=C1/C(=O)N(C(C)=O)c2ccccc21 | 24.3%
O=C(Cn1c(=O)sc2ccccc21)Nc1ccccc1 | 6.95%
CSc1oc(-c2ccccc2)nc1C(N)=O | -3.56%
Cc1ccc(NC(=O)COC(=O)C2CCN(c3ccc(C(F)(F)F)cn3)CC2)cc1C | 9.77%
CCOc1ccc(NC(=O)C2CCCN(c3nn4c(=O)cc(C)nc4s3)C2)cc1 (stereo not drawn) | -7.14%
Cc1cccc(OCc2nnc(SCC(=O)Nc3cc(C)on3)n2C)c1 | -0.112%
Cc1nc2ccccc2c(=O)n1Nc1cccc(Cl)c1 | -7.49%
COc1ccc(Cl)cc1-c1nc(SCC(N)=O)n[nH]1 | 16%
Cc1c(C(=O)NN)nn(-c2ccc(Cl)cc2)c(=O)c1C#N | 6.96%
CCc1ccc(NC(=S)NC2CC3CCCC(C2)N3Cc2ccccc2)cc1 (stereo not drawn) | -70.9%
Cc1ccc(NC(=O)C(C)OC(=O)CCNS(=O)(=O)c2ccc(C)cc2)cc1 (stereo not drawn) | -16.5%
COc1ccc(C2C(C(=O)c3ccco3)=C(O)C(=O)N2CCN2CCOCC2)c(OC)c1 (stereo not drawn) | 25.1%
S=C(NC1CC1)N1CCN(C(=S)NC2CC2)CC1 | 18.2%
Nc1ccccc1C(=O)OCC(=O)c1ccc2c(c1)OCCO2 | 21.5%
Cn1c(=O)c2c(nc(CN3CCC(C(N)=O)CC3)n2CCc2ccccc2)n(C)c1=O | 4.44%
CCCS(=O)(=O)N1CCC(C(=O)Oc2ccc(OC)cc2)CC1 | 21.7%
Cc1cc(C(=O)CSc2nn3c(=O)c(C(C)(C)C)nnc3s2)c(C)n1-c1ccc(F)cc1 | -7.43%

Structure (SMILES) | hERG current change (%, negative = inhibition) at 10uM
COc1cc2ccc(=O)oc2c2ccoc12 | -11.1%
Cc1ccc(N(CCC#N)C(=O)COC(=O)c2ccccc2SCC(=O)N2CCCC2)cc1 | -5.39%
C/C=C/c1ccc(OCC(=O)Nc2cc(S(=O)(=O)N3CCOCC3)ccc2N2CCCC2)c(OC)c1 | 3.81%
CC1(NC(=O)CSc2nnc(-c3c[nH]c4ccccc34)n2C2CC2)CCS(=O)(=O)C1 (stereo not drawn) | -0.208%
Cc1nn(CC(=O)NCCCN2C(C)CCCC2C)c(=O)c2cc3occc3n12 (stereo not drawn) | 17.5%
COc1ccc(C(=O)N2CCc3cc(OC)c(OC)cc3C2)cc1OC | 1.37%
c1ccc2c(Cn3ccnc3)c[nH]c2c1 | 2.6%
CCN(CC)CC(=O)Nc1ccc(C)cc1Br | 3.09%
CCN(CC)S(=O)(=O)c1cc(C(=O)OCC(=O)Nc2ccc(-c3nc4ccc(C)cc4s3)cc2)ccc1F | 6.97%
COc1ccc(OC)c(CNC(=O)c2coc(=O)c3ccccc23)c1 | 11%
CN(c1ccc(OCC(=O)NC2CCCC2)cc1)S(=O)(=O)c1cccs1 | -80.6%
O=C1CC(C(=O)N2CCOCC2)C2(CCCCC2)O1 (stereo not drawn) | 17.8%
Cc1ccc(O)c(NC(=O)c2ccccc2-c2ccccc2C(=O)O)c1 | 17.2%
CCc1ccc(NC(=O)CN2C(=O)C(=O)N(Cc3ccccc3)C2=O)cc1 | 19.8%
Cc1c(C(=O)Nc2ccc(Cl)cc2)c2ccccn2c1CCc1ccncc1 | -5.68%
Cc1cccc(NC(=S)NCc2ccc3c(c2)cc(C)n3C)c1C | -9.2%
CCC(C)(C(=O)NC1CCCC1)N(C(=O)CNC(=O)c1ccccc1)c1c(C)n(C)n(-c2ccccc2)c1=O (stereo not drawn) | 14.2%
COc1ccc(C(C(=O)NC2CCCC2)N(Cc2ccccc2)C(=O)CNC(=O)c2ccco2)cc1 (stereo not drawn) | -16%
Cc1nc(SCC(=O)NC2CCCC2)[nH]c(=O)c1C | 16.2%
